Measured values from patent US9777070B2, “Anti-PTK7 antibody-drug conjugates” (Pfizer Inc., priority 2014, dated 2017).

What was measured:
human PTK7 = target: T1, human PTK7 (Homo sapiens, UniProt Q13308); assay: SPR (Biacore 2000) of chimeric and humanized clone 24 mAbs; assay type: binding; conditions: recombinant human PTK7 ectodomain; Kd=Koff/Kon
T1 sequence (Q13308 31-1070): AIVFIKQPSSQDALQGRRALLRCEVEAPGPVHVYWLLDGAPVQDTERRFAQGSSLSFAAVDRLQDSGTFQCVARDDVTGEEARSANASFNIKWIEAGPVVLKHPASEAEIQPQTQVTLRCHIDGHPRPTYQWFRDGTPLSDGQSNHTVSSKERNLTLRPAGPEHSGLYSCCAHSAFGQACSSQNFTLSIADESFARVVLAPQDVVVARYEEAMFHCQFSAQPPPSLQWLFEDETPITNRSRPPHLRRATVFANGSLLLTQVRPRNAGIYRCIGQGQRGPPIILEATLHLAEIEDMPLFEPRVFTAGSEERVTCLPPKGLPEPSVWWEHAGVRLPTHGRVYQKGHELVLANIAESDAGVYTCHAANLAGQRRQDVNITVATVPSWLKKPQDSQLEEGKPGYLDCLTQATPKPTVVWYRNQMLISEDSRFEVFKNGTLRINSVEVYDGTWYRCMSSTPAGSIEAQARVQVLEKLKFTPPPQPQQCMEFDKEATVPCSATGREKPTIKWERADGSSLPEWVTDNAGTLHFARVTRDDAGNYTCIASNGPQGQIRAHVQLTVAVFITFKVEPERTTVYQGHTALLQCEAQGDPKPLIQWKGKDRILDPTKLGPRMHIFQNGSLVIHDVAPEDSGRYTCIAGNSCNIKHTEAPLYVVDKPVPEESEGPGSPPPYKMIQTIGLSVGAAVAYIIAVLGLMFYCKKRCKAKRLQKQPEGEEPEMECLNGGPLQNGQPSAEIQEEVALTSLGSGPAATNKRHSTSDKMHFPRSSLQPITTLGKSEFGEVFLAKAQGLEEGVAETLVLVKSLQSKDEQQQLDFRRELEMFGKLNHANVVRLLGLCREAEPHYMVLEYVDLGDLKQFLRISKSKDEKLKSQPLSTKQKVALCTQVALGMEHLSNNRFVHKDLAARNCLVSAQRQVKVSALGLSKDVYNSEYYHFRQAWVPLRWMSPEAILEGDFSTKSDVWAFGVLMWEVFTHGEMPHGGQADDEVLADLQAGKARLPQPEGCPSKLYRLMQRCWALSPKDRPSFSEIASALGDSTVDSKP
Description: A comparison of the chimeric and humanized clone 24 mAbs was determined by SPR using a Biacore™ 2000 (GE Healthcare). An antihuman antibody capture kit was used to immobilize capture mAbs on a CM5 biosensor chip. Prior to each antigen injection cycle, humanized mAb at a concentration of 2 μg/mL was captured on the surface with a contact time of 2 minutes and a flow rate of 5 μL/minute. The captured mAb loading from baseline was constant at 80-120 response units. […] Following each cycle, the anti-human capture surface was regenerated with 30 seconds contact time of 3M MgCl2 at 10 μL/minute.
Biacore™ data was processed by initially subtracting a control IgG surface from the specific mAb binding surface. The response data was then truncated to the association and dissociation phase. The resulting response curves with three different antigen concentrations were used to fit a 1:1 Langmuir binding model and to generate an apparent affinity by the calculated Kon and Koff kinetics constants, with equilibrium dissociation constant defined as Kd=Koff/Kon. All data analysis steps were completed in BiaEvaluation Software 3.1 (GE Healthcare).

[1] = target: T2, PTK7 on cancer cell lines (Homo sapiens, UniProt Q13308); assay: Flow cytometry binding of hu23 and hu24 to cultured cancer cell lines (Example 4); conditions: 10 μg/ml Ab
T2 construct: cancer cell lines with endogenous expression of PTK7; endogenous in cells; host or cells: cultured cancer cell lines (e.g. H661, H446, U2OS, H520, H1048, OE19, OE21, H1975, EKVX)
T2 sequence (Q13308 31-1070): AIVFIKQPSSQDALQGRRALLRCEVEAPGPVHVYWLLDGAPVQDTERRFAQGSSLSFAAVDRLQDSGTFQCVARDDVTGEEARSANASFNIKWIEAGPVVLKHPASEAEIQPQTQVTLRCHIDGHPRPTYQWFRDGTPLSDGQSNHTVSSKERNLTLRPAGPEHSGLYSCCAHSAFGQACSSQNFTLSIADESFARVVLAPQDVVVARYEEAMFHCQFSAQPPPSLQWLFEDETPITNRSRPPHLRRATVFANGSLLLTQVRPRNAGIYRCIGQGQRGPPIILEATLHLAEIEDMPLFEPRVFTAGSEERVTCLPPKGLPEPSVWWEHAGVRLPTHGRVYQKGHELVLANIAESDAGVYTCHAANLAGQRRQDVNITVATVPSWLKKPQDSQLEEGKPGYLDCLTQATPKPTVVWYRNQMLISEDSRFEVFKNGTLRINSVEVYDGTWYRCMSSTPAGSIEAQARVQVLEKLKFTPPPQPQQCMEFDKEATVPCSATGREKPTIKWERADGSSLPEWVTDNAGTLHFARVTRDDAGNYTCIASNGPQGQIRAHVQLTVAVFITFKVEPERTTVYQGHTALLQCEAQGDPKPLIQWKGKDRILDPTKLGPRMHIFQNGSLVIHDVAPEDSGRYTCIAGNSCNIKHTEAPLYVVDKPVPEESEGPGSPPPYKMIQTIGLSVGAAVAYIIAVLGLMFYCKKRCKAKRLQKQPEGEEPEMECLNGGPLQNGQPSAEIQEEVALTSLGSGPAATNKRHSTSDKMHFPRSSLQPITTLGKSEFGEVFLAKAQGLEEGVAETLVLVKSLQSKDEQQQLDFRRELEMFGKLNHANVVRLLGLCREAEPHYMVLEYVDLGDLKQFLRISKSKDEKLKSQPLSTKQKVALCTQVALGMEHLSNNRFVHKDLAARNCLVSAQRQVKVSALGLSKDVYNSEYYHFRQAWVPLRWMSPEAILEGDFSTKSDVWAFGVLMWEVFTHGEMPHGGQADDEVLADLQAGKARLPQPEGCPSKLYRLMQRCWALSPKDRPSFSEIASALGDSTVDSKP
Description: Adherent cells were dissociated using TrypLE Express (GIBCO), neutralized with cell culture media and counted. Cells were plated into a U-bottom 96-well plate with 5×10^5 cells/100 μL media/well. The plate was centrifuged at 300×g, for 5 minutes at 4° C. to pellet cells and the supernatant was discarded. […] The plate was centrifuged and the cell pellets were washed in 200 μL ice-cold 3% BSA in PBS. Each cell pellet was resuspended in 100 μL of R-phycoerythrin (PE)-conjugated goat anti-human IgG Fc fragment that had been diluted 1:50 in 3% BSA in PBS, and the plate was incubated on ice for 30 minutes. The plate was centrifuged and the cell pellets were washed in 200 μL of 3% BSA in PBS at 4° C. Each pellet was resuspended in 100 μL 3% BSA in PBS and transferred to a 5 mL polycarbonate tube containing 250 μL 3% BSA in PBS. The samples were analyzed by flow cytometry using 5 μL 7-Amino-Actinomycin D (7-AAD) staining solution per sample as a viability stain. Non-viable cells were excluded from the analysis.

B1: hu24 (antibody)
heavy: QVQLVQSGPEVKKPGASVKVSCKASGYTFTDYAVHWVRQAPGKRLEWIGVISTYNDYTYNNQDFKGRVTMTRDTSASTAYMELSRLRSEDTAVYYCARGNSYFYALDYWGQGTSVTVSS[letters of human IgG1 constant region omitted]
light: EIVLTQSPATLSLSPGERATLSCRASESVDSYGKSFMHWYQQKPGQAPRLLIYRASNLESGIPARFSGSGSGTDFTLTISSLEPEDFAVYYCQQSNEDPWTFGGGTKLEIKRTVAAPSVFIFPPSDEQLKSGTASVVCLLNNFYPREAKVQWKVDNALQSGNSQESVTEQDSKDSTYSLSSTLTLSKADYEKHKVYACEVTHQGLSSPVTKSFNRGEC
Kd (human PTK7): 1.2 nM
Mean Fluorescent Intensity ([1]; ASPC1, Pancreatic): 4.5
Mean Fluorescent Intensity ([1]; BT-549, Breast (BR)): 114
Mean Fluorescent Intensity ([1]; BxPC3, Pancreatic): 207
Mean Fluorescent Intensity ([1]; DMS79, Lung (SCLC)): 682
Mean Fluorescent Intensity ([1]; DMS114, Lung (SCLC)): 793
Mean Fluorescent Intensity ([1]; DU4475, Breast (BR)): 697
Mean Fluorescent Intensity ([1]; EKVX, Lung (NSCLC)): 3.8
Mean Fluorescent Intensity ([1]; H69, Lung (SCLC)): 404
Mean Fluorescent Intensity ([1]; H358, Lung (NSCLC)): 474
Mean Fluorescent Intensity ([1]; H446, Lung (SCLC)): 937
Mean Fluorescent Intensity ([1]; H520, Lung (NSCLC)): 1384
Mean Fluorescent Intensity ([1]; H522, Lung (NSCLC)): 672
Mean Fluorescent Intensity ([1]; H526, Lung (NSCLC)): 438
Mean Fluorescent Intensity ([1]; H596, Lung (NSCLC)): 355
Mean Fluorescent Intensity ([1]; H661, Lung (NSCLC)): 376
Mean Fluorescent Intensity ([1]; H1048, Lung (SCLC)): 955
Mean Fluorescent Intensity ([1]; H1299, Lung (NSCLC)): 70.9
Mean Fluorescent Intensity ([1]; H1975, Lung (NSCLC)): 444
Mean Fluorescent Intensity ([1]; H2110, Lung (NSCLC)): 171
Mean Fluorescent Intensity ([1]; HCC38, Breast (BR)): 227
Mean Fluorescent Intensity ([1]; HCC70, Breast (BR)): 474
Mean Fluorescent Intensity ([1]; HCC827, Lung (NSCLC)): 251
Mean Fluorescent Intensity ([1]; HCC1806, Breast (BR)): 77.5
Mean Fluorescent Intensity ([1]; HCC1937, Breast (BR)): 370
Mean Fluorescent Intensity ([1]; HCT116, Colon): 629
Mean Fluorescent Intensity ([1]; HEL92.1, Erythroleukemia (AML)): 23
Mean Fluorescent Intensity ([1]; HEL, Erythroleukemia (AML)): 46
Mean Fluorescent Intensity ([1]; HL60, Promyelocytic leukemia (AML)): 12.7
Mean Fluorescent Intensity ([1]; HL60 MX2, Promyelocytic leukemia (AML)): 25.7
Mean Fluorescent Intensity ([1]; Hs578T, Breast (BR)): 124
Mean Fluorescent Intensity ([1]; Hs700T, Pancreatic): 241
Mean Fluorescent Intensity ([1]; K562, Chronic Myelogenous leukemia (CML)): 56.1
Mean Fluorescent Intensity ([1]; KG1, Erythroleukemia (AML)): 159
Mean Fluorescent Intensity ([1]; Kasumi-1, Erythroleukemia (AML)): 68.2
Mean Fluorescent Intensity ([1]; MDAMB361-DYT2, Breast (BR)): 295
Mean Fluorescent Intensity ([1]; MDAMB436, Breast (BR)): 189
Mean Fluorescent Intensity ([1]; MDAMB468, Breast (BR)): 364
Mean Fluorescent Intensity ([1]; MV411, Monocytic leukemia): 10.1
Mean Fluorescent Intensity ([1]; MiaPaca, Pancreatic): 611
Mean Fluorescent Intensity ([1]; NB4, Promyelocytic leukemia (AML)): 19.5
Mean Fluorescent Intensity ([1]; RL, Non-Hodgkin's lymphoma (NHL)): 44.2
Mean Fluorescent Intensity ([1]; RPMI8226, Multiple myeloma): 17.8
Mean Fluorescent Intensity ([1]; Raji, Non-Hodgkin's lymphoma (NHL)): 36.3
Mean Fluorescent Intensity ([1]; SKBR3, Breast (BR)): 39.7
Mean Fluorescent Intensity ([1]; TF1, Erythroleukemia (AML)): 135
Mean Fluorescent Intensity ([1]; TF1a, Erythroleukemia (AML)): 208
Mean Fluorescent Intensity ([1]; THP-1, Monocytic leukemia): 4.0
Mean Fluorescent Intensity ([1]; U937, Monocytic leukemia): 5.8
